# Paper PMC7819943, “Rice protein-binding microarrays: a tool to detect cis-acting elements near promoter regions in rice”
# This is one part of the list.
# Molecular target: T1, OsWOX13 (Oryza sativa, UniProt Q5QMM3 1-267)
# T1 sequence: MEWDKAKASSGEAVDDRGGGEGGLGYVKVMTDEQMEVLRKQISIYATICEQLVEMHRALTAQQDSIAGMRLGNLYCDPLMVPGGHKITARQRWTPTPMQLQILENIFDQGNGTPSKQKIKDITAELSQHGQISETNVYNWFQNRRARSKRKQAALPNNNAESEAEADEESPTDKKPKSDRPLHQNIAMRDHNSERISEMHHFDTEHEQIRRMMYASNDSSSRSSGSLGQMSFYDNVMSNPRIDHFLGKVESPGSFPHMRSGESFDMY
# Experiment: protein-binding microarray (RPBM); PBS, 2% BSA, 51.3 ng/ul salmon testes DNA, 50 uM zinc acetate, 200 nM TF, 25 C, 1 h; high values mean tight binding
# Conditions: protein: recombinant; tags: N-terminal polyhistidine and DsRed monomer fusion (pET32a); label: CyDye5-dUTP incorporated in the synthesized complementary strand; 3' TTTTT single-stranded linker to array surface; dsDNA, one strand shown
# In short: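 The binding signal is fluorescence intensity per feature, in arbitrary units, read on an Axon 4000B scanner. Polyhistidine- and DsRed-tagged transcription factors (N-terminal fusions) from E. coli BL21-CodonPlus were purified on Ni–NTA and applied at 200 nM for 1 h at 25 °C to a double-stranded, BSA-blocked custom Agilent array in buffer with 50 µM zinc acetate.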
row,Sequence,binding signal
1,CCATTGTGACTGGCCTAATTAACCGAATCAAAGATACAGTCGGAGTCACCTAGTGCAG,17100 fluorescence intensity (a.u.)
2,ATGTAATTATCATTTATTTTATTATGACTTGATTCGTCATCGGAGTCACCTAGTGCAG,29400 fluorescence intensity (a.u.)
3,TGTAATTACCTTTTACAAACTTTTATGCTATTTCCTCCTACGGAGTCACCTAGTGCAG,16700 fluorescence intensity (a.u.)
4,TTCAAATTTTATATAGTCCAATCAAACTCGAATGGAGAAACGGAGTCACCTAGTGCAG,5270 fluorescence intensity (a.u.)
5,TTTTAATTTTAACGTGAACTAAACACATCATAAACGGATTCGGAGTCACCTAGTGCAG,19900 fluorescence intensity (a.u.)
6,AATAATTGATCAGGTTTTGTGGCAATAGATAGTTCGTATCCGGAGTCACCTAGTGCAG,28200 fluorescence intensity (a.u.)
7,TATATATATAATGCTTCAATCATACAGATCTGGAGTACAACGGAGTCACCTAGTGCAG,4720 fluorescence intensity (a.u.)
8,CCCCTTAATGATTTCAGTTCTTCAGCTTCAGTAATCAGTACGGAGTCACCTAGTGCAG,11300 fluorescence intensity (a.u.)
9,AGAGTTGATTTCTACAGAACATATTTGAATTTATCTGATGCGGAGTCACCTAGTGCAG,7650 fluorescence intensity (a.u.)
10,AGTGATTAATTACACTGAGCTGGAAGCTAGCCTTGACCTGCGGAGTCACCTAGTGCAG,39000 fluorescence intensity (a.u.)
11,AGATAATTATATCTATAGACTCGATGAATTGGGAGTGTCCCGGAGTCACCTAGTGCAG,39200 fluorescence intensity (a.u.)
12,TGAAAATTGGCTTTTCTCTTATATGCCATTGGTCCAAATTCGGAGTCACCTAGTGCAG,5220 fluorescence intensity (a.u.)
13,TCGCCCCAATCACGCGCGTTAACTCCCGCGCCGCGCCGCCCGGAGTCACCTAGTGCAG,31600 fluorescence intensity (a.u.)
14,TCTGAACATTTTAATCACGTCAATCCGTCTTACGTGACAACGGAGTCACCTAGTGCAG,9460 fluorescence intensity (a.u.)
15,CTAATTTAATGGATGCAGTATAGCTTGATAAATAAACCATCGGAGTCACCTAGTGCAG,15500 fluorescence intensity (a.u.)
16,CCCATAACTAAAATCACGAATTTGCGATGTCTTGTAGTAACGGAGTCACCTAGTGCAG,8270 fluorescence intensity (a.u.)
17,TCAGCTTATCAACCGATCATAATTAGCCAAGTCGAAACACCGGAGTCACCTAGTGCAG,3500 fluorescence intensity (a.u.)
18,ACTAGTCACACAAATTACCGTGCTTCATCAACGACACTTTCGGAGTCACCTAGTGCAG,3450 fluorescence intensity (a.u.)
19,CAAGAAAATGATTGGCTGATTTTCTTACAAATATCTAGGACGGAGTCACCTAGTGCAG,47100 fluorescence intensity (a.u.)
20,AACTGATTGTACCTAACAACCATCAGTACCAACAATAGTGCGGAGTCACCTAGTGCAG,31600 fluorescence intensity (a.u.)
21,CTTAACTAGTCAACCCATAAACACGATTACAATACTCCACCGGAGTCACCTAGTGCAG,4170 fluorescence intensity (a.u.)

row,Sequence,binding signal
1,GGATAATCTGATTACCGAGTGATAATCCACGGTATATACACGGAGTCACCTAGTGCAG,11500 fluorescence intensity (a.u.)
2,TCTTAATTCGCATCATTTCGGCATTTCCATTGCTAGGGTTCGGAGTCACCTAGTGCAG,3630 fluorescence intensity (a.u.)
3,TGTTCCAATAACTTGATATGATGGATGGGAGGTCAATCTTCGGAGTCACCTAGTGCAG,3520 fluorescence intensity (a.u.)
4,CAATTGTGAAATAATTAATTAAATTATCATTAAGCCCCAACGGAGTCACCTAGTGCAG,30300 fluorescence intensity (a.u.)
5,GGCGAAACAATCTAGAATAAATTGAAAAGTTTGGTTCAAACGGAGTCACCTAGTGCAG,10300 fluorescence intensity (a.u.)
6,TATCTATCATTCTATCATTCTATCTATCTATATCTCTCGCCGGAGTCACCTAGTGCAG,3970 fluorescence intensity (a.u.)
7,ATTTAATCACCGACCTTACACCAGCAGCAGTCCACCACCCCGGAGTCACCTAGTGCAG,4540 fluorescence intensity (a.u.)
8,AATAATGATTGCCGCGTAGTAGGAAACAAGATCTATTATGCGGAGTCACCTAGTGCAG,39900 fluorescence intensity (a.u.)
9,GTAATTGGGCTTTCTTTGGGTAGTTATCGCTGGGCTTAATCGGAGTCACCTAGTGCAG,6360 fluorescence intensity (a.u.)
10,CACATCATTATAAGTTAAAATTTAACTCGTAGATTCACTCCGGAGTCACCTAGTGCAG,3380 fluorescence intensity (a.u.)
11,AAAGGATAATAATTATTTGAGAATATATAGATATATAGAACGGAGTCACCTAGTGCAG,3180 fluorescence intensity (a.u.)
12,GGGGTAGATTTGCATTTGCATCAGCACGATCACAAAGCTTCGGAGTCACCTAGTGCAG,5440 fluorescence intensity (a.u.)
13,GTCCGAATCTTAATCACACACATGTAATGTTAACCTCATTCGGAGTCACCTAGTGCAG,3360 fluorescence intensity (a.u.)
14,TCAGATTGTTTGCTCCCACTGCAAGAGGTCTGGTCACCGTCGGAGTCACCTAGTGCAG,3710 fluorescence intensity (a.u.)
15,GGAAGGGGATTGAAGGCTCATCAATGTGGTTGGGTGTGGTCGGAGTCACCTAGTGCAG,11800 fluorescence intensity (a.u.)
16,TAGTCTGATAATGACAATGATGATTAGATAATGAGCAAAGCGGAGTCACCTAGTGCAG,10300 fluorescence intensity (a.u.)
17,CATTATGATGACTTGATGAAGAGCCGGACCCATTGAACAGCGGAGTCACCTAGTGCAG,3200 fluorescence intensity (a.u.)
18,GCCATGTCACCTCTTTCTAATTACACATTTACAACAGAAACGGAGTCACCTAGTGCAG,5740 fluorescence intensity (a.u.)
19,CCTGATCAAAATTGAGAGGGCCAAGATTTGAGGCAAAACTCGGAGTCACCTAGTGCAG,10900 fluorescence intensity (a.u.)
20,GGGAGATTTGTTGCAACGGAGGGCATTGAGTGGTGGGGACCGGAGTCACCTAGTGCAG,3340 fluorescence intensity (a.u.)
21,CAACTGGGTTAATCTCAATCAAAATATATACTCCCTCTAACGGAGTCACCTAGTGCAG,11300 fluorescence intensity (a.u.)
